System: Pseudoperonospora cubensis
Assay: Test for control effect on downy mildew of cucumber
Set-up: key: A: No infection.; B: Less than 25% of untreated plot; C: 25% or more to less than 50%, of untreated plot; D: 50% or more of untreated plot
Details: cucumber seedlings (sagami hanjiro), wettable powder at 500 ppm, 15 ml per pot; examined 7 days later
Procedure: Test for Control Effect on Downy Mildew of Cucumber
10 cucumber seeds (variety: sagami hanjiro) were sown in each of vinyl chloride resin made pots of 9 cm×9 cm and were allowed to germinate in a greenhouse for 7 days. The resulting cucumber young seedlings which reached a cotyledon stage were used as a sample plant. One kind of the wettable powders produced based on the Production Example 2 was diluted with water so as to give an active ingredient concentration of 500 ppm and the resulting solution was sprayed onto the sample plant in an amount of 15 ml per pot. The plant was air-dried and inoculated, by spraying, with a suspension of conidia of Pseudoperonospora cubensis. Immediately, the pot was placed in a wet house of 20° C. for 24 hours. Then, the pot was transferred into a greenhouse. 7 days later, the total diseased area of all the cotyledons in the pot was examined. The wettable powder used was evaluated according to the standard of Table 19.

O=[N+]([O-])CCN1C(=S)c2ccccc2S1(=O)=O [compound 39]
Evaluation (total diseased area of all the cotyledons): A

— patent publication US20060287375A1 (priority 2003, published 2006)
